Our source for the self-cleavage values is the RNAGym collection of RNA variant scans (doi:10.1093/nar/gkz1192).

Read counts are not given, so values of variants with three or more changes are uncertain.

B1: CPEB3 Ribozyme (parent)
chain: UAACAGGGGGCCACAGCAGAAGCGUUCACGUCGCAGCCCCUGUCAGAUUCUGGUGAAUCUGCGAAUUCUGCUGUAUAUCUC

In the data set the parent is B1. Kind of data set: self-cleavage, relative activity (ratio to wild type); higher = more cleavage; in vitro, sequencing. The gist of the method: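 Relative activity was defined as the cleaved/total read fraction for a variant divided by the same fraction for the unmutated ribozyme. CPEB3 self-cleaving ribozyme libraries were made by rounds of error-prone PCR, barcoded, and transcribed in vitro with T7 RNA polymerase for 5 hours at 37°C, and cleavage ran through transcription plus a 15 min DNase I step before EDTA. Illumina sequencing of template-switched reverse transcripts gave the reads, and DNA sequencing mapped the barcodes. Averages come from three batches, using variants with at least 5 reads.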
As for U49C U54A U72C, the self-cleavage came to 0.27.

As to U49A U60C U76C, the self-cleavage came out at 0.41.

For A56G G70C U72C, the self-cleavage was 0.29. Take U51A U67C U78C: the self-cleavage turned out to be 0.4. The figure for U48C U49C G63A A75G is 0.09; for U54C A57G A64U it is 0.29; for G55A A56G U66C C68U U78C it is 0.12. Regarding U49C G61U U72C, the self-cleavage was 0.1. On to U54A C71A U78C U80A, for which the self-cleavage came out at 0.53. With U51C U76A U80C, the self-cleavage came to 1.25. The figure for U48C A65G U72A is 0.29; for U51A U54A U58C it is 0.43. As for U48C A57G G70C U80A, the self-cleavage came to 0.18. Turning to G46U U51A A64G, the self-cleavage worked out at 0.1.

For the variant A56G A64U U69A, the self-cleavage came to 0.27. As for A56G A64U U69C, the self-cleavage was determined as 0.36. For the variant A47G U51C U76C, the self-cleavage worked out at 1.17.

For the variant A56C U74A A75G, the self-cleavage is 0.9. Under A47U U48C A56U U66C U78C stands 0.06. As for U51A A57G U67A U69A, the self-cleavage was 0.27. As for U54A U58A U80C, the self-cleavage came out at 0.56.

On to U49C A65G U78A, for which the self-cleavage is 0.33.

With U49C A65U U66C, the self-cleavage was 0.15. For U51A U58G A64G, the self-cleavage was 0.15. In the case of A47G U54C U80A, the self-cleavage came to 1.2. Regarding U49C U54G U72A, the self-cleavage is 0.13. Under U48C U49C U54G U66C stands 0.13. The figure for U48C A56U U67C U72A is 0.08; for A56G U60C C79A it is 0.46; for U54A A57G U69C A75C it is 0.46.

Take U49A U51C U60G A65G: the self-cleavage is 0.23. As to U51A U60C U76A, the self-cleavage stood at 0.76. For U51A A64G U66C, the self-cleavage came out at 0.43. Consider U49A A56G U74C, for which the self-cleavage came out at 0.81. As for U51A U60A U69C A75U, the self-cleavage is 0.67. As to A56U A65G U72C, the self-cleavage amounted to 0.21. Under A47G G63U U69C stands 0.42; under A56G A57G C62U A64U, 0.16; under U49C A56G U66A A77G, 0.46. As to A47U U60A G63U U72C, the self-cleavage was found to be 0.21.

In the case of G55A U69C G70A U76G, the self-cleavage is 0.19. Take A47G U66A U67C: the self-cleavage is 0.49. Consider U48C U51A C62G, for which the self-cleavage came out at 0.14. Regarding U49C U67C U69A U78C, the self-cleavage stood at 0.11. With U49C U66C U69A, the self-cleavage is 0.17. Turning to U51C A56G A64G U78C, the self-cleavage is 0.34.

Take A56G U72C U74C: the self-cleavage came to 1.24.

On to A47G A56G U67G, for which the self-cleavage turned out to be 0.44. A47G A56G A57G U72G U80C: the self-cleavage is 0.23. Consider U54C U72C U74C, for which the self-cleavage was found to be 1.25.

Take U48C U49C U60C: the self-cleavage is 0.45. For the variant U51A U54C A57G, the self-cleavage is 0.61. For the variant U49C A65G U72C G73C U76A, the self-cleavage was 0.12. Consider U51A C68U A77G, for which the self-cleavage was determined as 1.02. For the variant U51A U58A A64G U66A U74C, the self-cleavage is 0.45.

With A47C A56G U67A G70U, the self-cleavage worked out at 0.05. Under A47G A56U U76C stands 0.55. For the variant A47G U58C U67C, the self-cleavage was determined as 0.33. In the case of U49A U58C U76A, the self-cleavage came out at 0.28.

As for U49C A57G C81G, the self-cleavage stood at 0.32.

Take U51C A56U U69G: the self-cleavage was found to be 0.37. Regarding A47G U51G U78A, the self-cleavage came out at 0.35. Consider U51A U54C U58A U80C, for which the self-cleavage amounted to 0.28. As to G46A U69A U72C, the self-cleavage worked out at 0.34. Consider U51G U54G C62U U76C, for which the self-cleavage was 0.14. Turning to G55A A57G A64G U76C A77G, the self-cleavage worked out at 0.33.

As to A45U U72C U74C, the self-cleavage worked out at 0.59. As to U49C G61C U66C, the self-cleavage was determined as 0.12. Under G46A A64G U78C stands 0.13; under G53A A65G U74C, 0.64. Consider A47U U48A U80C, for which the self-cleavage is 0.15.

Turning to U51C C62U A65G U66C U67C A75U, the self-cleavage is 0.18. For the variant U49C U58C U76A, the self-cleavage stood at 0.13. The figure for U49C U69A U80C is 0.07; for A56G A57G U74A it is 0.26. As for U51A U72A A75G U78C, the self-cleavage came out at 0.49.

U49A U51G A65G: the self-cleavage worked out at 0.06.

With U48C U54C A65G, the self-cleavage was 0.14.

U54G U69C U78C: the self-cleavage was determined as 0.38.

Regarding C50G A65U U67C U72C, the self-cleavage was determined as 0.06. The figure for A47G U67C U80A is 0.22; for A47G A65C U74C C79A it is 0.12; for U54C U60C U66C A77G it is 0.4. Turning to U51C U58G U78C, the self-cleavage was determined as 0.18. Take A47U U69C C81A: the self-cleavage was 0.58. Consider U49C U60C U67C, for which the self-cleavage is 0.17. Turning to U54A A57G U67C U78A U80A, the self-cleavage is 0.62. With U51A A56U A57G, the self-cleavage turned out to be 0.29.

Consider A47G U51C A56U, for which the self-cleavage is 0.23. With U54A U60C A65C U78C, the self-cleavage came to 0.2.

On to A56G A75G A77U, for which the self-cleavage is 0.57. Consider U54A U60A U69C, for which the self-cleavage was 0.4. For the variant A57C U66C U72A U76C, the self-cleavage came out at 0.1.

Take U51A A56G U80C: the self-cleavage stood at 0.43. On to A47C U49A A57G A64U, for which the self-cleavage amounted to 0.15. For the variant U54A A57G A75G, the self-cleavage was found to be 0.43.

For the variant A47U U66C U78A, the self-cleavage stood at 0.43. For the variant U49G U54A U60G, the self-cleavage turned out to be 0.38. In the case of U51A U54C A65G, the self-cleavage was found to be 0.54. The figure for U51C A56G U60C is 0.37; for U54A A56G U74C it is 0.91; for A47G U49A A56G A57U it is 0.15.

Consider A56G U67A U80C, for which the self-cleavage turned out to be 0.62.

Turning to C50U A56G U67A, the self-cleavage worked out at 0.43.

As to U51A U67A C81U, the self-cleavage was 0.63. For the variant U54A A56U U69C, the self-cleavage was 0.37. As for U49A U66C U72C A77U, the self-cleavage was determined as 0.39. C50U U54G U60C A75U: the self-cleavage amounted to 0.17.

Consider A47C U48C U74C, for which the self-cleavage is 0.42.

As for A47G U60C G63U U72A, the self-cleavage is 0.28. On to A47U G53A A65G U66C, for which the self-cleavage was determined as 0.17. For the variant U49C U51A U60C, the self-cleavage stood at 0.37.

In the case of G52U A57G A65G, the self-cleavage came out at 0.62. Turning to G52A A57G A64C U69C, the self-cleavage was 0.44. With A56U A57G A64G U80A, the self-cleavage is 0.45. The figure for A56G A64U U78C is 0.49. Under A56G U60A A64G stands 0.25. The figure for U49C A57G G61U is 0.13.

With U48C A56G U60C U67A, the self-cleavage was 0.17.

On to U51G A64G U72A U78C, for which the self-cleavage amounted to 1.02. As to U51G G52A G53A, the self-cleavage amounted to 1.19.

As for U48C U66C U69G, the self-cleavage stood at 0.32. Consider A47G U58A U60C, for which the self-cleavage came out at 0.27. Regarding A45U U76C U78C, the self-cleavage turned out to be 0.54. Consider U51C U67C A77G, for which the self-cleavage worked out at 0.41. For G55U U67C U72A, the self-cleavage came to 0.2.

Take U51C C62U A64U U69C: the self-cleavage was 0.28. Regarding G52A U54C U69C, the self-cleavage worked out at 0.78. As to U48C G70A U72A, the self-cleavage turned out to be 0.3.

Turning to A47G U51C U67A, the self-cleavage is 0.42. The figure for U49C U51A U54A U72C is 0.93; for A47U U58C U76A U80A it is 0.5. Take U48C U51C U72C: the self-cleavage was 0.31. Under G53C U54G C62U A65G stands 0.29. As to U49C U58G U69A, the self-cleavage was 0.46.

As to U51C U66A U78C, the self-cleavage stood at 0.42. For U48C A64G C81A, the self-cleavage turned out to be 0.6. Under A47G G73A C81U stands 1.31; under U51C U67C U69G, 0.38. The figure for U48C A57G U58C A64G is 0.84; for U51C A57G C59U it is 0.47; for U54A A56U A65U it is 0.14. On to U51C U58C U67C, for which the self-cleavage stood at 0.44. For the variant U54C U66C U69C, the self-cleavage is 0.19. The figure for U54C U60A C62G is 0.26; for U54A A57G A65G it is 0.19; for U49C C62G U72A it is 0.21. The figure for A56G G63A A64C U76A is 0.17.

With A47G U60C A75U, the self-cleavage amounted to 0.35. With U48A U49C U67C, the self-cleavage was determined as 0.09. Regarding U54A U58C U76A, the self-cleavage is 1.1. The figure for A47G U49A C50U A64C U80C is 0.14. For the variant A56G U58C U69G, the self-cleavage turned out to be 0.14. Under U54C A56G C62A stands 0.2; under G52A A65G U67A, 0.16; under U51A U54C A56G U78C, 0.59. Take U49C A64G U80C: the self-cleavage stood at 0.26. With C50A C62U U80A, the self-cleavage is 0.17. With U48C U49C U51A A56G C62U, the self-cleavage turned out to be 0.08. For the variant A47G C59A U69A, the self-cleavage was 0.38. Under G53A A65G U78C stands 0.44. The figure for U54C A75U C79A is 1.24. Consider G46A A47G U69A, for which the self-cleavage amounted to 0.16. Take G46A U72C U76A: the self-cleavage stood at 0.16. Turning to U49A U54A U67C U72C, the self-cleavage was determined as 0.42. With U54G U60C A64G, the self-cleavage was found to be 0.24. In the case of U48C A56G U67A U74A A77U, the self-cleavage is 0.2.
